Results on 115 sequences are retold here after the BET-seq Pho4 binding data (Le et al. 2018).

This is one part of the list. Values were computed here from the reads of four pooled replicates and scatter widely.

This experiment concerns the target T1, Pho4 (S. cerevisiae) (UniProt P07270).
T1 sequence: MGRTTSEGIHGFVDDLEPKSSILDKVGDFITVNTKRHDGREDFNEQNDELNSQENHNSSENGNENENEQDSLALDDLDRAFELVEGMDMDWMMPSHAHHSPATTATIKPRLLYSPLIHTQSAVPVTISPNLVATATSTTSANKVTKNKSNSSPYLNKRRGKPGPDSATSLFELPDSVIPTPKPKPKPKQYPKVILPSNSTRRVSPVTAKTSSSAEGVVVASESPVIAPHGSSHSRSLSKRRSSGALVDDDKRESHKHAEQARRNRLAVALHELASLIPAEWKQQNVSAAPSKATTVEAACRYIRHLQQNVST
The experiment can be described thus: relative binding free energy (BET-seq); higher = weaker binding. The note with it: reference: library average.
On to TTTAACACGTGAATTA, for which the “relative binding free energy” value stood at 0.21 kcal/mol. The figure for TTTTTCACGTGGCGTC is 0.3 kcal/mol; for AGGGTCACGTGACAGG it is 0.16 kcal/mol. For AGTGCCACGTGGGATG, the “relative binding free energy” value is -0.29 kcal/mol. Then CCGGGCACGTGAGTGT, with 0.05 kcal/mol. Then TCTCTCACGTGGGTTG, with 0.07 kcal/mol; and TCGAGCACGTGGAGGT, with -0.28 kcal/mol.

With TAGGGCACGTGAGTCA, the “relative binding free energy” value is -0.01 kcal/mol. Then GGCTTCACGTGTTAGA, with 0.42 kcal/mol; and TGGGGCACGTGGTAAG, with -0.08 kcal/mol; and GGCTTCACGTGTGTCT, with 0.42 kcal/mol. Then ATGGGCACGTGTTTAT, with -0.09 kcal/mol; and TGTCGCACGTGCAGGT, with -0.19 kcal/mol. Turning to GAGTCCACGTGGATGT, the “relative binding free energy” value stood at 0.09 kcal/mol. Turning to TATTACACGTGATAAT, the “relative binding free energy” value was determined as 0.14 kcal/mol.

With AGTGGCACGTGGACGT, the “relative binding free energy” value is -0.13 kcal/mol.

In the case of AGATTCACGTGTGAAA, the “relative binding free energy” value was 0.35 kcal/mol. Then GGTTTCACGTGTATCA, with 0.17 kcal/mol; and TAGGGCACGTGGTGGG, with -0.1 kcal/mol. Then TTTGGCACGTGTTCCA, with -0.07 kcal/mol; and TATTGCACGTGTGTTC, with 0.05 kcal/mol.

As for GTGAGCACGTGAAGTT, the “relative binding free energy” value was found to be 0.41 kcal/mol. Turning to ATCATCACGTGAGTGG, the “relative binding free energy” value turned out to be 0.36 kcal/mol. Turning to TGTTACACGTGTGGGA, the “relative binding free energy” value turned out to be 0.07 kcal/mol. Then TGGAACACGTGTAAGG, with 0.23 kcal/mol; and AGCTTCACGTGGGTGT, with 0.18 kcal/mol; and TGAAGCACGTGTGAGT, with 0.11 kcal/mol. Turning to ATGGTCACGTGAACGG, the “relative binding free energy” value was 0.24 kcal/mol. Then ATAAGCACGTGGTTCG, with -0.19 kcal/mol; and ATGATCACGTGAAAGG, with 0.33 kcal/mol; and AATTACACGTGGTGGC, with 0.14 kcal/mol. Then CGATTCACGTGTTTAG, with 0.37 kcal/mol; and GAATGCACGTGGGGTA, with -0.05 kcal/mol; and CTTTGCACGTGCAGTG, with -0.03 kcal/mol.

Take TATTTCACGTGTTAAA: the “relative binding free energy” value is 0.4 kcal/mol. Then AGGGGCACGTGGGCTC, with -0.16 kcal/mol; and ATATTCACGTGGGAGC, with 0.15 kcal/mol. As for AGGTGCACGTGAAGCG, the “relative binding free energy” value amounted to 0.12 kcal/mol. Regarding CTGTGCACGTGGACGT, the “relative binding free energy” value was -0.02 kcal/mol. As to GGTCGCACGTGGATTG, the “relative binding free energy” value worked out at 0.08 kcal/mol. As to ATGATCACGTGTCGGG, the “relative binding free energy” value came to 0.26 kcal/mol. The figure for GGTAGCACGTGTGGGT is 0.05 kcal/mol.

For TTATTCACGTGTAGGG, the “relative binding free energy” value is 0.24 kcal/mol. The figure for GCTTGCACGTGGTGGG is 0 kcal/mol; for CTAGTCACGTGTGATT it is 0.21 kcal/mol. The figure for TGGAGCACGTGATCTT is 0.1 kcal/mol; for TGTTCCACGTGGGGCA it is 0.05 kcal/mol; for GTTTCCACGTGGTATG it is 0.02 kcal/mol. Then ATGGGCACGTGCGGCG, with -0.19 kcal/mol; and TATAGCACGTGATTAT, with 0.08 kcal/mol. Consider CGCTGCACGTGTGAGG, for which the “relative binding free energy” value is 0.09 kcal/mol. The figure for TATATCACGTGACAGT is 0.23 kcal/mol; for GGGTACACGTGGTCGA it is 0.06 kcal/mol. Then AGAAGCACGTGTTGGT, with -0.01 kcal/mol; and TATTACACGTGCGGTA, with -0.02 kcal/mol; and TGGGACACGTGGATGG, with 0.07 kcal/mol. Then GGTTTCACGTGGGTGC, with 0.26 kcal/mol; and GGGCTCACGTGTAATT, with 0.32 kcal/mol; and AGGAGCACGTGAGGTT, with 0.27 kcal/mol. As to GTGGTCACGTGGGGTG, the “relative binding free energy” value was 0.07 kcal/mol. Then TGGAGCACGTGATCGT, with 0.03 kcal/mol. With GTTGTCACGTGTAGGG, the “relative binding free energy” value was 0.13 kcal/mol. Then TGGAGCACGTGCATTT, with -0.12 kcal/mol.

Take GGCTGCACGTGATCTG: the “relative binding free energy” value is 0.33 kcal/mol. The figure for TATCGCACGTGTAAGG is 0 kcal/mol; for ATCGGCACGTGCTGTG it is -0.18 kcal/mol; for AACTTCACGTGTATTT it is 0.24 kcal/mol. Then GTTTACACGTGTGAGA, with 0.05 kcal/mol; and CGTTACACGTGGAGTG, with 0.03 kcal/mol; and GTTCTCACGTGAGTTT, with 0.24 kcal/mol. Then GGGTACACGTGTGTGT, with 0.09 kcal/mol; and AACGTCACGTGCGGTG, with 0.12 kcal/mol; and ATTTTCACGTGCGGGC, with 0.33 kcal/mol.

In the case of GGGGACACGTGGCTGT, the “relative binding free energy” value was -0.21 kcal/mol. The figure for GATTTCACGTGCTATG is 0.17 kcal/mol. Then TTCAGCACGTGAAGTT, with 0.24 kcal/mol; and AGGTGCACGTGCGGCT, with -0.21 kcal/mol; and GAGTCCACGTGTTTGT, with 0.22 kcal/mol.

On to ATTAACACGTGGTAGC, for which the “relative binding free energy” value stood at 0.02 kcal/mol.

On to GGTCTCACGTGTGCGG, for which the “relative binding free energy” value was 0.37 kcal/mol.

On to TTTTACACGTGTCAAT, for which the “relative binding free energy” value came out at 0.22 kcal/mol. Then TTGGCCACGTGGTTTG, with 0 kcal/mol; and GTTGACACGTGAGGTT, with 0.26 kcal/mol; and GCATTCACGTGGGTGA, with 0.17 kcal/mol. The figure for ATGGCCACGTGTCGGG is -0.16 kcal/mol. The figure for TGCGTCACGTGTGTAC is 0.06 kcal/mol; for CAGGGCACGTGGAGTC it is -0.03 kcal/mol. With GGTTACACGTGCTGGG, the “relative binding free energy” value was determined as 0.2 kcal/mol. The figure for AAACTCACGTGTGTTG is 0.23 kcal/mol; for GGTTACACGTGGATCG it is 0.34 kcal/mol; for CGGCGCACGTGTAGGT it is 0.03 kcal/mol. The figure for ATGGCCACGTGAAGTT is 0.14 kcal/mol; for TGGTGCACGTGAAGCA it is 0.23 kcal/mol; for ATAGTCACGTGTTGGT it is 0.01 kcal/mol. Then TGTGACACGTGGTCAG, with -0.07 kcal/mol; and TTAATCACGTGAGCGA, with 0.37 kcal/mol; and CATGTCACGTGGAGAT, with 0.14 kcal/mol. Take AGGTTCACGTGGTGAT: the “relative binding free energy” value was 0.16 kcal/mol. Then AGTTACACGTGGGTGC, with -0.17 kcal/mol. Then GTAAGCACGTGGTTGA, with -0.18 kcal/mol; and AATTGCACGTGCTTTT, with -0.09 kcal/mol; and ATGGGCACGTGAGTGT, with 0.12 kcal/mol. Then CCTGGCACGTGAGGGG, with 0.1 kcal/mol; and AGTGTCACGTGTACTT, with 0.18 kcal/mol. Turning to TGCATCACGTGTCGTG, the “relative binding free energy” value is 0.11 kcal/mol. The figure for ATCATCACGTGGGTGG is 0.11 kcal/mol. The figure for GTTGTCACGTGTTACG is 0.19 kcal/mol. ATAGTCACGTGCGGGC: the “relative binding free energy” value amounted to 0.12 kcal/mol. Then GAAATCACGTGAGGTG, with 0.2 kcal/mol; and GTTGGCACGTGTTAGT, with 0.05 kcal/mol. GTTAGCACGTGTATGC: the “relative binding free energy” value was 0.09 kcal/mol. The figure for CTGGGCACGTGCGTTT is -0.13 kcal/mol. The figure for ATGGTCACGTGCCGTG is 0.05 kcal/mol; for GGCTACACGTGCGGGG it is -0.08 kcal/mol. Then GATTGCACGTGGGCTA, with 0.03 kcal/mol.
